From the supplement of paper PMC8813932
Counter-ions that a name gives are not always drawn. ± gives the standard deviation of the averaged measurements. The list shows a part of the results. Single values are uncertain, as repeats are few or missing.

tested on: OVCAR4; experiment: log2 surviving fraction relative to plate median (drug vs vehicle, or drug+dl922-947 vs dl922-947 alone); ovarian cancer lines: OVCAR4 is platinum-sensitive while Ov4Cis resists cisplatin and Ov4Carbo carboplatin; higher = more cell survival; conditions: dl922-947 oncolytic adenovirus co-treatment: none; compound concentration: 10 uM; 192 h

Compound	log2 surviving fraction
COc1ccc(CN(CCN(C)C)c2ccccn2)cc1 [Pyrilamine Maleate]	-0.00364 ± 0.59
COc1c2occc2cc2ccc(=O)oc12 [Methoxsalen (Oxsoralen)]	0.678 ± 0.64
CC(C)NCC(O)c1cc(O)cc(O)c1 (stereo not given) [Metaproterenol Sulfate]	0.00689 ± 0.091
CC[C@H]1OC(=O)[C@H](C)[C@@H](O[C@H]2C[C@@](C)(OC)[C@@H](O)[C@H](C)O2)[C@H](C)[C@@H](O[C@@H]2O[C@H](C)C[C@H](N(C)C)[C@H]2O)[C@](C)(O)C[C@@H](C)CN(C)[C@H](C)[C@@H](O)[C@]1(C)O [Azithromycin Dihydrate]	0.647 ± 1.4
CCOC(=O)CCC(=O)O[C@H]1[C@H](O[C@@H]2[C@@H](C)[C@H](O[C@H]3C[C@@](C)(OC)[C@@H](O)[C@H](C)O3)[C@@H](C)C(=O)O[C@H](CC)[C@@](C)(O)[C@H](O)[C@@H](C)C(=O)[C@H](C)C[C@@]2(C)O)O[C@H](C)C[C@@H]1N(C)C [Erythromycin Ethylsuccinate]	-0.267 ± 0.46
CN[C@@H]1[C@H](O)[C@H](NC)[C@H]2O[C@@]3(O)C(=O)C[C@@H](C)O[C@H]3O[C@@H]2[C@H]1O [Spectinomycin  hydrochloride]	-0.247 ± 0.8
CC[C@H](C)C(=O)O[C@H]1CCC=C2C=C[C@H](C)[C@H](CC[C@@H]3C[C@@H](O)CC(=O)O3)[C@H]21 [Mevastatin]	-1.72 ± 0.11
NC(CO)C(=O)NNCc1ccc(O)c(O)c1O (stereo not given) [Benserazide]	1.34 ± 0.41
C[C@](N)(Cc1ccc(O)c(O)c1)C(=O)O [Methyldopa (Aldomet)]	0.12 ± 0.47
CC(C)c1nc(CN(C)C(=O)N[C@@H](CCN2CCOCC2)C(=O)N[C@H](CC[C@H](Cc2ccccc2)NC(=O)OCc2cncs2)Cc2ccccc2)cs1 [Cobicistat (GS-9350)]	-2.32 ± 1.4

tested on: Ov4Carbo; experiment: as above; conditions: dl922-947 oncolytic adenovirus co-treatment: MOI 10; compound concentration: 10 uM; 192 h

Compound	log2 surviving fraction
N=C(N)c1ccc(N=NNc2ccc(C(=N)N)cc2)cc1 [Diminazene Aceturate]	-1.14
Nc1cccc2c1CN(C1CCC(=O)NC1=O)C2=O (stereo not given) [Lenalidomide]	0.519
CCC(=O)O[C@@H](O[P@](=O)(CCCCc1ccccc1)CC(=O)N1C[C@H](C2CCCCC2)C[C@H]1C(=O)O)C(C)C [Fosinopril sodium (Monopril)]	0.555
CC1(C)S[C@@H]2[C@H](NC(=O)[C@H](N)c3ccccc3)C(=O)N2[C@H]1C(=O)O [Ampicillin Trihydrate]	1.26
CC[C@H]1OC(=O)C[C@@H](O)[C@H](C)[C@@H](O[C@@H]2O[C@H](C)[C@@H](O)[C@H](N(C)C)[C@H]2O)[C@@H](CCN2C[C@H](C)C[C@H](C)C2)C[C@@H](C)C(=O)/C=C/C(C)=C/[C@@H]1CO[C@@H]1O[C@H](C)[C@@H](O)[C@@H](OC)[C@H]1OC [Tilmicosin]	0.288
CN/C(=N\CCSCc1nc[nH]c1C)NC#N [Cimetidine (Tagamet)]	0.339
CC(C)C(=O)Nc1ccc([N+](=O)[O-])c(C(F)(F)F)c1 [Flutamide (Eulexin)]	0.248
CCCOc1ccc(C(=O)OCCN(CC)CC)cc1N [Proparacaine HCl]	0.832
C=CCc1cc(OC)c(O)c(C(=O)NCCO)c1 [Alibendol]	-0.179
Cn1c(CNc2ccc(C(=N)N)cc2)nc2cc(C(=O)N(CCC(=O)O)c3ccccn3)ccc21 [BIBR 953 (Dabigatran etexilate, Pradaxa)]	0.574
CC(C)OC(=O)C(C(=O)OC(C)C)=C1SC=CS1 [Malotilate]	1.34
CN(C)CCOc1ccc(/C(=C(/CCCl)c2ccccc2)c2ccccc2)cc1 [Toremifene Citrate (Fareston, Acapodene)]	-4.34
C[C@@H]1CCC[C@H](C)N1NC(=O)c1ccc(Cl)c(S(N)(=O)=O)c1 [Clopamide]	0.321
CC(=O)OC[C@H]1O[C@@H]([S-])[C@H](OC(C)=O)[C@@H](OC(C)=O)[C@@H]1OC(C)=O.CCP(CC)CC.[Au+] [Auranofin]	-8.2
CN(C(=O)CN(CCO)CC(=O)N(C)C(C)(C)Cc1ccccc1)C(C)(C)Cc1ccccc1 [Oxethazaine]	-5.76
CCC[C@@H]1C[C@@H](C(=O)N[C@@H]([C@H]2O[C@H](SC)[C@H](O)[C@@H](O)[C@H]2O)[C@@H](C)O)N(C)C1 [Lincomycin hydrochloride (Lincocin)]	-0.293
CC12CC3CC(C)(C1)CC(N)(C3)C2 [Memantine HCl (Namenda)]	1.33
Cc1cccc(C(C)c2c[nH]cn2)c1C (stereo not given) [Medetomidine HCl]	-0.823
O=C(O)CCNC(=O)c1ccccc1 [Betamipron]	-0.0501
C[C@H](CS)C(=O)N1CCC[C@H]1C(=O)O [Captopril (Capoten)]	-0.766

Compound	log2 surviving fraction
C[C@@H](O)[C@H]1C(=O)N2C(C(=O)O)=C(S[C@@H]3CN[C@H](C(=O)N(C)C)C3)[C@H](C)[C@H]12 [Meropenem]	0.546
CN(C/C=C/C#CC(C)(C)C)Cc1cccc2ccccc12 [Terbinafine hydrochloride (Lamisil)]	1.17
Nc1ncnc2c1ncn2[C@@H]1O[C@H](COP(=O)(O)OP(=O)(O)OP(=O)(O)O)[C@@H](O)[C@H]1O [ATP (Adenosine-Triphosphate)]	-0.49
NC(=O)c1cnccn1 [Pyrazinamide (Pyrazinoic acid amide)]	-0.862
Cc1ccccc1C(=O)Nc1ccc(C(=O)N2CCCC(O)c3cc(Cl)ccc32)c(C)c1 (stereo not given)	-2.11
CCC[C@H](NC(=O)[C@@H]1[C@H]2CCC[C@H]2CN1C(=O)[C@@H](NC(=O)[C@@H](NC(=O)c1cnccn1)C1CCCCC1)C(C)(C)C)C(=O)C(=O)NC1CC1 [Telaprevir (VX-950)]	-0.723
O=C1C(O)=C([C@H]2CC[C@H](c3ccc(Cl)cc3)CC2)C(=O)c2ccccc21 [Atovaquone (Atavaquone)]	1.06
CC(C)(C#N)c1cc(Cn2cncn2)cc(C(C)(C)C#N)c1 [Anastrozole]	0.247
CS(=O)(=O)CCNCc1ccc(-c2ccc3ncnc(Nc4ccc(OCc5cccc(F)c5)c(Cl)c4)c3c2)o1 [Lapatinib]	-7.51
CC[C@H](C)[C@H](N)C1=N[C@H](C(=O)N[C@@H](CC(C)C)C(=O)N[C@H](CCC(=O)[O-])C(=O)N[C@H](C(=O)N[C@H]2CCCCNC(=O)[C@H](CC(N)=O)NC(=O)[C@@H](CC(=O)[O-])NC(=O)[C@H](Cc3cnc[nH]3)NC(=O)[C@@H](Cc3ccccc3)NC(=O)[C@H]([C@@H](C)CC)NC(=O)[C@@H](CCCN)NC2=O)[C@@H](C)CC)CS1.[Zn+2] [Bacitracin zinc]	0.00608
COc1ccc(CN(CCN(C)C)c2ccccn2)cc1 [Pyrilamine Maleate]	-1.22
COc1c2occc2cc2ccc(=O)oc12 [Methoxsalen (Oxsoralen)]	0.272
CC(C)NCC(O)c1cc(O)cc(O)c1 (stereo not given) [Metaproterenol Sulfate]	-0.55
CC[C@H]1OC(=O)[C@H](C)[C@@H](O[C@H]2C[C@@](C)(OC)[C@@H](O)[C@H](C)O2)[C@H](C)[C@@H](O[C@@H]2O[C@H](C)C[C@H](N(C)C)[C@H]2O)[C@](C)(O)C[C@@H](C)CN(C)[C@H](C)[C@@H](O)[C@]1(C)O [Azithromycin Dihydrate]	-0.139
CCOC(=O)CCC(=O)O[C@H]1[C@H](O[C@@H]2[C@@H](C)[C@H](O[C@H]3C[C@@](C)(OC)[C@@H](O)[C@H](C)O3)[C@@H](C)C(=O)O[C@H](CC)[C@@](C)(O)[C@H](O)[C@@H](C)C(=O)[C@H](C)C[C@@]2(C)O)O[C@H](C)C[C@@H]1N(C)C [Erythromycin Ethylsuccinate]	0.0655
CN[C@@H]1[C@H](O)[C@H](NC)[C@H]2O[C@@]3(O)C(=O)C[C@@H](C)O[C@H]3O[C@@H]2[C@H]1O [Spectinomycin  hydrochloride]	-0.378
CC[C@H](C)C(=O)O[C@H]1CCC=C2C=C[C@H](C)[C@H](CC[C@@H]3C[C@@H](O)CC(=O)O3)[C@H]21 [Mevastatin]	-2.11
NC(CO)C(=O)NNCc1ccc(O)c(O)c1O (stereo not given) [Benserazide]	0.527
C[C@](N)(Cc1ccc(O)c(O)c1)C(=O)O [Methyldopa (Aldomet)]	1.91
CC(C)c1nc(CN(C)C(=O)N[C@@H](CCN2CCOCC2)C(=O)N[C@H](CC[C@H](Cc2ccccc2)NC(=O)OCc2cncs2)Cc2ccccc2)cs1 [Cobicistat (GS-9350)]	0.378
